Out of some 48,000 compounds screened, about 120 (0.25%) were called active. Another 4% or so got no clear call; they are omitted. The call rests on the fitted dose curve; in most records, active means well fitted activation curve with a large enough effect; inconclusive means small, poorly fitted or top-dose-only effect, or another doubt; inactive means no such curve, though single readings can be large or run the other way. Some of the results follow.
assay: Primary qHTS for Identification of Small Molecule Activators of Huntingtin-Antisense Promoter Activity; conditions: HEK293 HTT-AS promoter firefly luciferase reporter (activity 0% = vehicle and -100% = no light), 24 h; series mostly up to 57.5 µM; activity change, positive = activation: at the top concentration; further: nearly all actives have a fitted effect of over 55% in size
Procedure, shortened: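 Quantitative HTS used concentration series of up to 57.5 uM final on HEK293 luciferase reporter cells, 24 h at 37 degrees C. Readout was Dual-Glo firefly luminescence.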
Potency means the concentration at half of the fitted maximal effect.

Row | Structure (SMILES) | activity change, positive = activation | Potency
1 | O=C(CCC(=O)N1CC2CCCN2c2ccccc21)NCc1ccccc1F (configuration not stated) | inactive: -3.47% | 
2 | Cc1cccc(OCC(=O)OCc2cc(=O)n3nc(C4CC4)sc3n2)c1 | inactive: 8.41% | 
3 | O=C(NCc1ccccc1)c1cccc(Nc2nc3ccccc3n3nnnc23)c1 | inactive: -3.48% | 
4 | COc1ccc(CNC(=O)Cn2ccc3cc(S(=O)(=O)N4CCCCCC4)ccc32)cc1OC | inactive: -26.4% | 
5 | COc1ccc2oc(=O)cc(CN3CCN(C(=O)c4ccccc4F)CC3)c2c1 | inactive: -17.1% | 
6 | CCn1c(CN2CCC(C)CC2)nc2cc(NC(=O)c3ccccc3[N+](=O)[O-])ccc21 | inactive: -14.8% | 
7 | Cc1ccc(C)c(Cn2c(=O)c3c(nc4n3CCN4c3ccc(F)cc3)n(C)c2=O)c1 | inactive: -14.6% | 
8 | CCOC(=O)c1c(C)[nH]c(CCC(=O)NCCCN2CCN(c3cccc(Cl)c3)CC2)c1C | inactive: -35.6% | 
9 | CCOc1ccc(-n2c(Cc3ccccc3)nnc2SCc2nc(-c3ccccc3C)no2)cc1 | inactive: -41.7% | 
10 | CC(=O)NCCNC(=O)CCCc1nnc2n(CCC(C)C)c(=O)c3sccc3n12 | inactive: -4.22% | 
11 | CCS(=O)(=O)N1CCc2cc(C(=O)N3CCN(c4cccc(C(F)(F)F)c4)CC3)ccc21 | inactive: -28.7% | 
12 | Cc1ccc(NC(=O)C(=O)NCC(c2cccnc2)N2CCOCC2)cc1C (configuration not stated) | inactive: -15.6% | 
13 | CCc1ccc(OC(=O)CSc2nnc(-c3ccc4c(c3)OCO4)o2)cc1 | inactive: -25.9% | 
14 | CCOCCCNC(=O)C(c1ccc(OC)cc1)N(Cc1cccs1)C(=O)c1ccc(NC(C)=O)cc1 (configuration not stated) | inactive: -6.43% | 
15 | Fc1cccc(-c2nc(-c3ccncc3)no2)c1 |  | active: 3.98 µM
16 | Cc1ccc(C(=O)c2oc3ccccc3c2NC(=O)c2cc(=O)c3ccccc3o2)cc1 | inactive: -2.1% | 
17 | CCOC(=O)c1c(C)oc2nc(C)nc(Nc3cccc(OC)c3)c12 | inactive: -4.67% | 
18 | CCN1CCC(n2cc(CNc3cc(Cl)c4ncc(C#N)c(Nc5ccc(F)c(Cl)c5)c4c3)nn2)CC1 | inactive: -2.02% | 
19 | Nc1ccc(S(=O)(=O)Nc2ccccn2)cc1 | inactive | 
20 | CCOc1ccc(CC(=O)Nc2c(C(=O)c3ccc(F)cc3)oc3ccccc23)cc1OCC | inactive: -16.4% | 
21 | COC(=O)c1ccc(C2Nc3c(C)cc(C)cc3C3C=CCC32)cc1 (configuration not stated) | inactive: -9.81% | 
22 | Cc1ccccc1CSc1cn(CCNC(=O)c2cccs2)c2ccccc12 | inactive: -47.2% | 
23 | COc1ccc(C(CNC(=O)COc2ccc(C)c(C)c2)N2CCCCC2)cc1 (configuration not stated) | inactive: 7.15% | 
24 | CCC(O)c1nc2ccccc2n1Cc1cccc(Cl)c1 (configuration not stated) | inactive: -27% | 

Row | Structure (SMILES) | activity change, positive = activation | Potency
25 | Cn1cc(-c2ccncc2)c(-c2ccc(OCc3ccc4ccccc4n3)cc2)n1 | inactive: -93.5% | 
26 | CC(=O)Nc1ccc(NC(=O)CC2Sc3ccccc3NC2=O)cc1 (configuration not stated) | inactive: -8.83% | 
27 | Cc1ccc(Cl)cc1N1CCN(C(=O)c2cc(S(=O)(=O)N3CCC(C)CC3)cn2C)CC1 | inactive: -43.2% | 
28 | CCOc1ccc(CNC(=O)C2CCN(S(=O)(=O)c3c(C)noc3/C=C/c3ccc(C)cc3)CC2)cc1OC | inactive: 15.7% | 
29 | Cc1c(CNCc2ccc(Cl)cc2)c(C(=O)O)c(C)n1Cc1ccc(F)cc1 | inactive: -19.6% | 
30 | CCOc1ccc(CNS(=O)(=O)c2ccc3[nH]c4c(c3c2)CCCC4)cc1OC | inactive: -28.4% | 
31 | COc1ccc(NC(=O)CSc2nc3nc(C)cc(C)n3n2)cc1 | inactive: -15.6% | 
32 | COc1cccc(CNC(=O)CCc2nnc3n(C)c(=O)c4sccc4n23)c1 | inactive: -4.36% | 
33 | CCCN(CCC)CCCNC(=O)C1CCC(CNS(=O)(=O)c2ccc(NC(C)=O)cc2)CC1 (configuration not stated) | inactive: -6.55% | 
34 | COc1ccc(NC(=O)Cn2c(CCC(=O)O)ccc2-c2ccccc2)cc1Cl | inactive: -12.9% | 
35 | COc1ccc(-c2noc(-c3ccc(NCc4ccc(C)cc4)c([N+](=O)[O-])c3)n2)cc1OC | inactive: -5.65% | 
36 | Cn1c(=O)c2c(nc(SCC(=O)Nc3ccc(OC(F)(F)F)cc3)n2Cc2cccc(C(F)(F)F)c2)n(C)c1=O | inactive: -25% | 
37 | Cc1ccc(S(=O)(=O)Nc2cc3c(cc2C)n(C)c(=O)c(=O)n3C)cc1 | inactive: -18.5% | 
38 | O=S1(=O)c2cccc3cccc(c23)N1CCCN1CCN(c2ccc(F)cc2)CC1 | inactive: -19.2% | 
39 | Cc1ccc(-c2onc(C)c2C)cc1S(=O)(=O)N1CCCCC1 | inactive: -40.2% | 
40 | Cc1cc(NC(=O)N2CC=C(c3c[nH]c4ccccc34)CC2)ccc1Br | inactive: -21.5% | 
41 | O=C(Cn1c(=O)n(-c2ccc(F)cc2)c(=O)c2sc3ccccc3c21)N1CCCC1 | inactive: -0.188% | 
42 | CCOC(=O)c1sc2ccccc2c1S(=O)(=O)Nc1c(C)cccc1C | inactive: -18.6% | 
43 | Cc1ccc(CSC2=Nc3ccccc3C3=NC(CCC(=O)N4CCN(c5ccccc5)CC4)C(=O)N23)cc1 (configuration not stated) | inactive: 11.2% | 
44 | CCOC(=O)c1c(N)n(-c2ccc(C)c(C)c2)c2nc3ccccc3nc12 | inactive: -1.32% | 
45 | COc1cc(CNC(=O)c2cc(-c3ccccc3)n[nH]2)cc(OC)c1OC | inactive: -13.4% | 
46 | Cc1ccccc1NC(=O)CSc1nc(-c2ccc(F)cc2)c2cccc(C)c2n1 | inactive: 7.4% | 
47 | O=c1[nH]c(=O)c2ccccc2o1 | inactive: -6.24% | 

Source: PubChem BioAssay AID1508624 (National Center for Advancing Translational Sciences (NCATS), 2021)
